First the molecules themselves.
T1: RBFOX1 RRM (Homo sapiens, UniProt Q9NWB1 109-208)
T1 sequence: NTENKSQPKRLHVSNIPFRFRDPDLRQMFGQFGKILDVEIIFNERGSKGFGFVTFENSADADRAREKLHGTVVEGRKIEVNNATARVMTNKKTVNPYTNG

B1: CGCAAGU (DNA:RNA)
RNA: GGGAGACCGGAAUUCAGAUUGUCCCGCAAGUUUAAAUCCCGUCGUAGCCACCA
DNA 1: CAATCTGAATTCCGGTCTCCC
DNA 2: TGGTGGCTACGACGGGATT
B2: UCUGUUC (DNA:RNA)
RNA: GGGAGACCGGAAUUCAGAUUGUCCUCUGUUCUUAAAUCCCGUCGUAGCCACCA
DNA 1: CAATCTGAATTCCGGTCTCCC
DNA 2: TGGTGGCTACGACGGGATT
B3: UCUCGCC (DNA:RNA)
RNA: B2 RNA with G28C, U29G, U30C
DNA 1: CAATCTGAATTCCGGTCTCCC
DNA 2: TGGTGGCTACGACGGGATT
B4: UCGAAUA (DNA:RNA)
RNA: B2 RNA with U27G, G28A, U29A, C31A
DNA 1: CAATCTGAATTCCGGTCTCCC
DNA 2: TGGTGGCTACGACGGGATT
B5: AUAUUUC (DNA:RNA)
RNA: B2 RNA with U25A, C26U, U27A, G28U
DNA 1: CAATCTGAATTCCGGTCTCCC
DNA 2: TGGTGGCTACGACGGGATT
B6: UAUAGUA (DNA:RNA)
RNA: B2 RNA with C26A, G28A, U29G, C31A
DNA 1: CAATCTGAATTCCGGTCTCCC
DNA 2: TGGTGGCTACGACGGGATT
B7: AGCUGUU (DNA:RNA)
RNA: B1 RNA with C25A, A28U, A29G, G30U
DNA 1: CAATCTGAATTCCGGTCTCCC
DNA 2: TGGTGGCTACGACGGGATT
B8: GAGAAUU (DNA:RNA)
RNA: B1 RNA with C25G, G26A, C27G, G30U
DNA 1: CAATCTGAATTCCGGTCTCCC
DNA 2: TGGTGGCTACGACGGGATT
B9: GUAGUCC (DNA:RNA)
RNA: B2 RNA with U25G, C26U, U27A, U30C
DNA 1: CAATCTGAATTCCGGTCTCCC
DNA 2: TGGTGGCTACGACGGGATT

Residue numbers refer to the chain shown, from its start. The list shows a part of the results.

In this assay the target is T1, RBFOX1 RRM. Description: EMSA; HiTS-Eq, 1 nM pool, 10 min; buffer printed only for the single-RNA assays: 10 mM Tris pH 7.5, 150 mM NaCl, 3.4 mM EDTA, 0.001% NP-40, 30 C. As to conditions: tags: His6 N-terminal (pET28a); label: 5' 32P. The gist of the method: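 Purified RbFox RRM (wild type or mutant) was equilibrated for 10 min in 50 µL with 1 nM of a 5′-radiolabelled pool of RNA with 7 randomized nucleotides, its flanks annealed to DNA oligonucleotides, across increasing protein concentrations. Free RNA was separated by 8% native PAGE, excised, reverse-transcribed, PCR-barcoded and sequenced on an Illumina HiSeq 2500. Relative association constants came from read-count changes of each variant against the control reaction, normalised to the cognate motif.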
Background: Mobility shift assays separate free from complexed probe on a gel.
Turning to B1, the binding signal was 0.014 KA relative to UGCAUGU.
The figure for B2 is 0.0184 KA relative to UGCAUGU; for B3 it is 0.0143 KA relative to UGCAUGU; for B4 it is 0.00387 KA relative to UGCAUGU.
With B5, the binding signal was 0.00468 KA relative to UGCAUGU.
B6: the binding signal is 0.0114 KA relative to UGCAUGU.
As to B7, the binding signal was 0.0136 KA relative to UGCAUGU.
For B8, the binding signal is 0.00866 KA relative to UGCAUGU.
As for B9, the binding signal was 0.00967 KA relative to UGCAUGU.
